Measured values published in PMC4336329 (PLoS ONE, 2015).
Among all 310,000 compounds or so, about 2,200 (0.71%) showed an effect of 50% or more. The effect is printed as a negative number. The list shows a part of the results.

Molecular target: human ether-à-go-go-related gene (hERG) potassium channel (human, UniProt Q12809)
Assay: primary screen, population patch clamp on CHO cells stably expressing hERG

Sequence of human ether-à-go-go-related gene (hERG) potassium channel (Q12809 whole entry, looked up): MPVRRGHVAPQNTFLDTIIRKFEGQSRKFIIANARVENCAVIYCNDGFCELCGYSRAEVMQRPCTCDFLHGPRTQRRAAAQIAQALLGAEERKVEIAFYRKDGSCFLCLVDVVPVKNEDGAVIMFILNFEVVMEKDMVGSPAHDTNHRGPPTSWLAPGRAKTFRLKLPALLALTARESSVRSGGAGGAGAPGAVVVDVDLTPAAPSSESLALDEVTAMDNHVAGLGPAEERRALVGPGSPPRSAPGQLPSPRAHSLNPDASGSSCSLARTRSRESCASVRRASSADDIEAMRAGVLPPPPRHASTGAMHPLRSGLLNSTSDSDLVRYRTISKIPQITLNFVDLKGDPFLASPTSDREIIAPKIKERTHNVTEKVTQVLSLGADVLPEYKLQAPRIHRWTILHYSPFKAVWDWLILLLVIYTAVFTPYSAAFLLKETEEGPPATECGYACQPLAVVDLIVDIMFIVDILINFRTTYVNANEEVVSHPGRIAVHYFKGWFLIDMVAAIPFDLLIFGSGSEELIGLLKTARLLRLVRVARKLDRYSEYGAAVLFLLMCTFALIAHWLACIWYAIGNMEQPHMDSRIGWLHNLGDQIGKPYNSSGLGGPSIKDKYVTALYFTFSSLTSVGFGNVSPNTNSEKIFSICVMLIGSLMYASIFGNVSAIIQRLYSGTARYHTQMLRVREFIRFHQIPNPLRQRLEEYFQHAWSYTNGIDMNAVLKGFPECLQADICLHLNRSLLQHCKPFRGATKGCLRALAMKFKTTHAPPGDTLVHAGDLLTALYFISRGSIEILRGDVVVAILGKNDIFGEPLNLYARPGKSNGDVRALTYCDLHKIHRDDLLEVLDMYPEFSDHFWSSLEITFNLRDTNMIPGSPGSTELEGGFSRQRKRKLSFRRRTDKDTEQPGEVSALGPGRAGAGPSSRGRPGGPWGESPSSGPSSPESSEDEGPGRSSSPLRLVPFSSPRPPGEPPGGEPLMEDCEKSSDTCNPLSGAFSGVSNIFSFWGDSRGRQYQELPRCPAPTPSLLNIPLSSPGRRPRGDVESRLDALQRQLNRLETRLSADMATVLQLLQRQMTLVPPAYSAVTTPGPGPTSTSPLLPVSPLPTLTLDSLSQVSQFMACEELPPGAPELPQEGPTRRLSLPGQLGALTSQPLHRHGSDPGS

SMILES	hERG current change (%, negative = inhibition) at 1uM [%]
COc1cccc(C(=O)NC(=S)Nc2ccc3[nH]c(=O)[nH]c3c2)c1	-23.7
CC(O)[C@H]1CNC(=O)C(=O)N1CC1(c2ccccc2)CC1 (stereo partly drawn)	17.3
Clc1ccc(-c2c[n+]3c(n2-c2ccccc2)SCC3)cc1.[Cl-]	3.68
CC1=CC(C)(C)N2C(=O)C3(C(C#N)=C(N)OC4=C3C(=O)CCC4)c3c(C)c(C)cc1c32 (stereo not drawn)	9.76
CCOc1ccc(N2C(=O)/C(=C\c3cccs3)C(=O)NC2=S)cc1	16.5
COC(=O)c1ccccc1NC(=O)CSc1nc(C)cc(C)n1	10.5
COc1cc2c(cc1NC(=S)NC(=O)/C=C/c1ccco1)oc1ccccc12	8.27
Cc1ccc(C(C(=O)NC2CCCC2)N(Cc2ccc(F)cc2)C(=O)c2snc(C(N)=O)c2N)o1 (stereo not drawn)	5.56
O=C(COC(=O)c1ccc(Br)o1)NC1CCCCC1	9.21
COc1ccc(/C(C)=N/NC(=O)C2CC2)cc1	-9.18
Cc1c(NS(=O)(=O)c2ccc3nc(COc4ccccc4Cl)[nH]c3c2)c(=O)n(-c2ccccc2)n1C	17
O=C(NCC(c1ccco1)N1CCc2ccccc21)C(=O)Nc1ccccc1 (stereo not drawn)	7.36
O=C(CSc1nc(-c2ccccc2)c(-c2ccccc2)[nH]1)Nc1ccc2c(c1)OCO2	9.89
CCOc1ccc(NC(=O)Cn2nnc(-c3ccccc3F)n2)cc1	3.62
O=C(c1cccs1)c1cn(Cc2ccccc2Cl)c2ccccc12	18.1
COc1ccc(Br)c(C(=O)Nc2cccc(Cl)c2Cl)c1	6.46
CCN1C(=O)[C@H]2[C@@H](c3ccc(-c4ccc(Cl)c(Cl)c4)cc3)N[C@@](Cc3ccccc3)(C(=O)OC)[C@H]2C1=O.O=C(O)C(F)(F)F	7.01
CC(=O)c1c(C)[nH]c(C(=O)OC(C)C(=O)Nc2ccc(C)c(S(=O)(=O)N3CCOCC3)c2)c1C (stereo not drawn)	14.7
CCc1sc(NC(=O)CN2CCC(C(N)=O)CC2)nc1-c1ccccc1	12.4
Clc1ccc2c(c1)CNc1c(ncnc1N1CCOCC1)O2	5.3
O=C(COC(=O)Cc1n[nH]c(=O)c2ccccc12)Nc1ncc(Cl)cc1Cl	4.58
CCN(CC)CCn1nc2c3c(cccc3c1=O)-c1ccccc1-2	-50

SMILES	hERG current change (%, negative = inhibition) at 1uM [%]
CC(=O)N(CCCN(C)C)Cc1ccccn1	15.6
CC(=O)Nc1ccc(S(=O)(=O)N2CCN(CC3CC4C=CC3C4)CC2)cc1.O=C(O)C(=O)O (stereo not drawn)	12.9
CC1CCC(C(C)C)C(OC(=O)COC(=O)c2ccccc2N)C1 (stereo not drawn)	4.58
CCOC(=O)C1CCN(S(=O)(=O)CCNC(=O)c2ccccc2)CC1	6.46
CCOC(=O)c1c(NC(=O)c2ccc(C)cc2)sc2c1CC(C)(C)NC2(C)C	7.88
COc1ccccc1NC(=O)c1c(Nc2ccccc2C)sc(C(=O)Nc2cccc(Cl)c2)c1N	13.3
Cc1cc(NC(=O)c2cn(C3CCCCC3)c(=O)c3c2c2ccccc2n3C)no1	11.9
O=C(CC1COc2ccccc2O1)Nc1ccccn1 (stereo not drawn)	7.73
Cc1ccc(-n2nnnc2Sc2ccc(S(=O)(=O)NCCN(C)C)cc2[N+](=O)[O-])cc1	4.31
N#Cc1cnc2cc(-c3ccccc3)nn2c1N	8.75
CCCN(C(=O)CCl)C1=CCCCC1	26.6
CC(C(=O)N=c1sc2ccccc2n1C)N1C(=O)C2CC=CCC2C1=O (stereo not drawn)	-23.9
O=C(c1ccccc1)c1cn(CC(=O)N2CCCC2)c2ccccc12	-5.76
COCc1nnc(NC(=O)CCCCCN2C(=O)c3ccccc3C2=O)s1	7.19
O=C(CSc1nc(-c2ccccc2)nn1C(=O)c1ccccc1)Nc1cccc([N+](=O)[O-])c1	8.2
COc1ccc(NC2CCCN(C(=O)COc3ccc(C)cc3)C2)cc1 (stereo not drawn)	1.09
COc1ccc(NC(=O)CSc2nnc3ccc(-c4ccccn4)nn23)cc1OC	13.8
O=C1C(Cc2cnc[nH]2)NC(=S)N1c1ccccc1 (stereo not drawn)	6.46
Cc1ccc2c(c1)-c1c(ssc1=S)C(C)(C)N2C(=O)CSc1nncn1C	-16.3
O=[N+]([O-])c1ccc(Cl)c(/C=N/n2c(-c3ccncc3)n[nH]c2=S)c1	10.8
Cc1cc(C(=O)N/N=C/c2ccc3ccccc3c2)n[nH]1	18.6
COC(=O)c1ccc(C(=O)Nc2nnc(-c3cccnc3)o2)cc1	10.6

SMILES	hERG current change (%, negative = inhibition) at 1uM [%]
COc1ccc(C2C(C#N)=C(N)N(N(C)C)C3=C2C(=O)CC(C)(C)C3)cc1 (stereo not drawn)	5.31
C/C(=N\N1CCN(c2ccccc2)CC1)c1ccco1	8.97
CCN(CC)c1ccc(/C=N/NS(=O)(=O)c2cccc([N+](=O)[O-])c2)cc1	14.1
COc1ccc(CN2[C@@H](CC(=O)O)c3ccccc3S2(=O)=O)cc1	20.4
O=C(CCc1nnc(CCCc2ccccc2)o1)NCC(F)(F)F	7.04
COc1cccc(CNC(=O)c2ccc(OCC(=O)N3CCOCC3)c(OC)c2)c1	16.8
COc1ccc(N2CCN(C(=O)CNC(=O)c3cccs3)CC2)cc1	26.2
COc1ccc(OCC(=O)Nc2ccc(N3CCN(Cc4ccccc4F)CC3)cc2)cc1	1.71
OC(COc1ccc2c(c1)CCC2)Cn1cnc2ccccc21 (stereo not drawn)	14.2
COc1ccc(C2CC(=O)C3=C(C2)Nc2ncnn2C3c2ccccc2C)c(OC)c1 (stereo not drawn)	-3.59
Cc1cc(C)cc(-n2c(C)cc(/C=N/NC(=O)CN(c3c(C)cccc3C)S(C)(=O)=O)c2C)c1	10.9
Cc1cc(NC(=O)c2ccc3c(c2)C(=O)N(C)C3=O)no1	16.4
O=C1C2CC=CCC2C(=O)N1Cc1ccccc1 (stereo not drawn)	8.16
O=S(=O)(Nc1nc2ccccc2nc1NCC1CCCO1)c1cc(Cl)ccc1Cl (stereo not drawn)	-0.683
COc1ccc(CCn2ccc(O)c(Cc3ccc(Cl)cc3Cl)c2=O)cc1OC	7.11
CCC(Sc1nnc(-c2ccco2)n1C)C(=O)Nc1nnc(C)s1 (stereo not drawn)	10.8
NC(=O)C1CCN(c2ccc(C(F)(F)F)cn2)CC1	5.33
O=C(C1CCCN(S(=O)(=O)c2ccccc2)C1)N1CCN(c2ncccn2)CC1 (stereo not drawn)	-15.6
O=c1[nH]ncc(NCCc2ccccc2)c1Cl	14.6
CC(NC(=O)Cn1ncc(Cl)c(Cl)c1=O)C12CC3CC(CC(C3)C1)C2 (stereo not drawn)	15.8
CCOC(=O)/C(=N/Nc1ccc(Cl)cc1)S(=O)(=O)c1ccccc1	-0.828
Cc1cc(C)n(Cc2ccc(NC(=O)c3ccc(COc4ccccc4Br)cc3)cc2)n1	-8.42

SMILES	hERG current change (%, negative = inhibition) at 1uM [%]
CN1CCN(NS(=O)(=O)c2ccc(Cl)cc2)CC1	12.5
CCCn1cc(S(=O)(=O)c2ccc(C)cc2)c(=O)c2cc(OC)c(OC)cc21	7.98
O=C(COc1ccc(Cl)cc1)Nc1ccc2c(c1)C(=O)NC2=O	14.5
CCCc1c(C)c2cc(C)ccc2[nH]c1=O	-3.14
COC(=O)c1cc(C)nc(Sc2ccccc2NC(C)=O)n1	12
CCOC(=O)C1(C)NC(c2ccc(OC)c(OC)c2)C2C(=O)N(CC)C(=O)C21 (stereo not drawn)	4.83
O=C1NN=C(c2ccc(Cl)cc2)CC1c1cccc(Cl)c1 (stereo not drawn)	-2.01
COC(=O)c1sccc1NC(=S)N1CCN(C)CC1	12.2
O=C(O)C(=O)O.c1ccc(CN2CCN(C(c3ccccc3)c3ccccc3)CC2)cc1	10.4
CC(=O)Nc1nnc(SCc2cccc(F)c2)s1	5.89
CC1CCC2(CC1)Nc1ccccc1C(=O)N2c1ccccc1 (stereo not drawn)	9.74
CCOc1nc2ccccc2nc1C	7.52
COc1ccccc1C(=O)NCCC(=O)NCc1ccncc1	9.55
O=S(=O)(c1ccc(NC(=S)Nc2ccc3c(c2)OCO3)cc1)N1CCOCC1	15.7
Cc1c(NC(=O)Nc2c(Cl)cccc2Cl)c(=O)n(-c2ccccc2)n1C	6.17
NS(=O)(=O)c1ccc(NS(=O)(=O)/C=C/c2ccccc2)cc1	13
COc1ccc(-n2c(CN3CCC(C(N)=O)CC3)nc3ccc([N+](=O)[O-])cc3c2=O)c(OC)c1	3.9
O=C1CCC(C(=O)NCc2ccccc2)N1 (stereo not drawn)	11.9
CCOC(=O)c1ccc(NS(=O)(=O)c2c(C)nc3sccn3c2=O)cc1	6.59
CCCNC(=O)c1cc2nc(-c3ccccc3)cc(C(F)(F)F)n2n1	8.49
CCOc1ccc(OCCC(=O)OCC(=O)Nc2cc(S(=O)(=O)N3CCOCC3)ccc2C)cc1	11.7
